Measurements published in patent publication US20230301999A1, “METHODS OF TREATING GOUT” (Horizon Therapeutics USA, Inc., priority 2020, published 2023).

Tests used:
[1] = tested on: adult patients with uncontrolled gout; experiment: Open-label study: number of joints affected by tophi; type: in vivo, human; settings: mITT population
Text: Estimation of the mean change from baseline in number of joints affected by tophi in subjects receiving pegloticase with MTX.

[2] = tested on: adult patients with uncontrolled gout; experiment: Open-label study: Health Assessment Questionnaire (HAQ-DI, HAQ pain, HAQ health); type: in vivo, human; settings: mITT Population
Description: Quality-of-Life Assessment: The HAQ was administered at any point during the study. The HAQ-DI is a self-report functional status instrument that can be filled out by a subject in less than 5 minutes and requires 1 minute to score. The index measures disability over the past week by asking a total of 20 questions covering 8 domains of function: dressing and grooming, arising, eating, walking, hygiene, reach, grip, and usual activities. There are at least 2 questions in each domain and the 8 domains represent a comprehensive set of functional activities. The HAQ-DI is calculated by scoring the answer to each question in the HAQ from 0 to 3, with 0 representing the ability to do without any difficulty, and 3 representing inability to do. Any activity that requires assistance from another individual or requires the use of an assistive device raises a 0 or 1 score to a 2. The highest score for each of the 8 domains is summed (range from 0 to 24) and divided by 8 to yield, on a scale with 25 possible values, a Functional Disability Index with a range from 0 to 3. The disability index is based on the number of domains answered and is computed only if the subject completes answers to at least 6 domains. The HAQ pain scale asks subjects to record how much pain they have had in the past week on a scale of 0 to 100, where zero represents “no pain” and 100 represents “severe pain”. The HAQ health scale is a measure of overall health. Subjects are asked to rate how well they are doing on a score of 0 to 100, where zero represents “very well” and 100 represents “very poor” health.
Quality of life was assessed using the HAQ.

[3] = Day 1, change from Methotrexate Baseline
[4] = Day 1, Methotrexate Baseline table
[5] = Early Termination Visit, change from Methotrexate Baseline
[6] = Early Termination Visit, change from Pegloticase Baseline
[7] = Early Termination Visit, Methotrexate Baseline table
[8] = Early Termination Visit, Pegloticase Baseline table
[9] = End of Pegloticase Infusions Visit, change from Methotrexate Baseline
[10] = End of Pegloticase Infusions Visit, Methotrexate Baseline table
[11] = End of Pegloticase Infusions Visit, Pegloticase Baseline table
[12] = Week 14, change from Methotrexate Baseline
[13] = Week 14, change from Pegloticase Baseline
[14] = Week 24, change from Methotrexate Baseline
[15] = Week 24, change from Pegloticase Baseline
[16] = Week 24, Methotrexate Baseline table
[17] = Week 24, Pegloticase Baseline table
[18] = Week 36, change from Methotrexate Baseline
[19] = Week 36, change from Pegloticase Baseline
[20] = Week 36, Methotrexate Baseline table
[21] = Week 36, Pegloticase Baseline table
[22] = Week 52/ET, change from Pegloticase Baseline
[23] = Week 52/ET, Methotrexate Baseline table
[24] = Week 52/ET, Pegloticase Baseline table

With pegloticase the “Number of joints affected by tophi, change from baseline, mean (SD)” value (from here on “Number … change from baseline, mean (SD)”) ([1]; Week 24, n=9) was −4.7 (6.36), the “Number of joints affected by tophi, change from baseline, median” value (shortened to “Number … change from baseline, median”) ([1]; Week 24, n=9) was −3.0 and the “Number of joints affected by tophi, observed, mean (SD)” value (“Number … observed, mean (SD)” for short) ([1]; Week 24, n=9) was 4.0 (3.64). The “Number of joints affected by tophi, observed, median” value (shortened to “Number … observed, median”) ([1]; Week 24, n=9) was 3.0, the “Number … change from baseline, mean (SD)” value ([1]; Week 36, n=4) was −11.5 (7.33) and the “Number … change from baseline, median” value ([1]; Week 36, n=4) was −9.0. For the same substance, the “Number … observed, mean (SD)” value ([1]; Week 36, n=4) was 3.3 (3.86), the “Number … observed, median” value ([1]; Week 36, n=4) was 1.5 and the “Number … change from baseline, mean (SD)” value ([1]; Week 52/ET, n=2) was −17.0 (9.90). For the same substance, the “Number … change from baseline, median” value ([1]; Week 52/ET, n=2) was −17.0, the “Number … observed, mean (SD)” value ([1]; Week 52/ET, n=2) was 5.0 (2.83) and the “Number … observed, median” value ([1]; Week 52/ET, n=2) was 5.0. For the same substance, the “HAQ-DI, Change from Baseline, Median” value [2, 3] was 0.0, the “HAQ-Health, Change from Baseline, Median” value [2, 3] was 10.0 and the “HAQ-Pain, Change from Baseline, Median” value [2, 3] was 0.0. For the same substance, the “HAQ-DI, Observed, Median” value [2, 4] was 0.5, the “HAQ-Pain, Observed, Median” value [2, 4] was 40.0 and the “HAQ-DI, Change from Baseline, Median” value [2, 5] was −0.3. The “HAQ-Health, Change from Baseline, Median” value [2, 5] was 8.0, the “HAQ-Pain, Change from Baseline, Median” value [2, 5] was 7.0 and the “HAQ-DI, Change from Baseline, Median” value [2, 6] was 0.1. The “HAQ-Health, Change from Baseline, Median” value [2, 6] was −10.0, the “HAQ-Pain, Change from Baseline, Median” value [2, 6] was −10.0 and the “HAQ-DI, Observed, Median” value [2, 7] was 0.6. The “HAQ-Health, Observed, Median” value [2, 7] was 10.0, the “HAQ-Pain, Observed, Median” value [2, 7] was 40.0 and the “HAQ-DI, Observed, Median” value [2, 8] was 0.6. For the same substance, the “HAQ-Health, Observed, Median” value [2, 8] was 10.0, the “HAQ-Pain, Observed, Median” value [2, 8] was 40.0 and the “HAQ-DI, Change from Baseline, Median” value [2, 9] was −0.1. For the same substance, the “HAQ-Health, Change from Baseline, Mean (SD)” value [2, 9] was −80.0 (0.00), the “HAQ-Health, Change from Baseline, Median” value [2, 9] was −80.0 and the “HAQ-DI, Change from Baseline, Median” value ([2]; End of Pegloticase Infusions Visit, change from Pegloticase Baseline) was −0.1. For the same substance, the “HAQ-DI, Observed, Median” value [2, 10] was 0.1, the “HAQ-Health, Observed, Mean (SD)” value [2, 10] was 0.0 (0.00) and the “HAQ-Health, Observed, Median” value [2, 10] was 0.0. The “HAQ-Pain, Observed, Median” value [2, 10] was 40.0, the “HAQ-DI, Observed, Median” value [2, 11] was 0.1 and the “HAQ-Health, Observed, Mean (SD)” value [2, 11] was 0.0 (0.00). For the same substance, the “HAQ-Health, Observed, Median” value [2, 11] was 0.0, the “HAQ-Pain, Observed, Median” value [2, 11] was 40.0 and the “HAQ-DI, Change from Baseline, Median” value [2, 12] was 0.0. For the same substance, the “HAQ-Health, Change from Baseline, Median” value [2, 12] was −5.0, the “HAQ-DI, Change from Baseline, Median” value [2, 13] was 0.0 and the “HAQ-Health, Change from Baseline, Median” value [2, 13] was −1.0. For the same substance, the “HAQ-DI, Observed, Median” value ([2]; Week 14, Methotrexate Baseline table) was 0.5, the “HAQ-DI, Observed, Median” value ([2]; Week 14, Pegloticase Baseline table) was 0.5 and the “HAQ-DI, Change from Baseline, Median” value [2, 14] was −0.1. The “HAQ-Health, Change from Baseline, Median” value [2, 14] was −40.0, the “HAQ-Pain, Change from Baseline, Median” value [2, 14] was −10.0 and the “HAQ-DI, Change from Baseline, Median” value [2, 15] was −0.1. For the same substance, the “HAQ-Health, Change from Baseline, Median” value [2, 15] was −10.0, the “HAQ-Pain, Change from Baseline, Median” value [2, 15] was −10.0 and the “HAQ-DI, Observed, Median” value [2, 16] was 0.1. For the same substance, the “HAQ-Health, Observed, Median” value [2, 16] was 10.0, the “HAQ-Pain, Observed, Median” value [2, 16] was 20.0 and the “HAQ-DI, Observed, Median” value [2, 17] was 0.1. The “HAQ-Health, Observed, Median” value [2, 17] was 10.0, the “HAQ-Pain, Observed, Median” value [2, 17] was 20.0 and the “HAQ-DI, Change from Baseline, Median” value [2, 18] was 0.0. For the same substance, the “HAQ-Health, Change from Baseline, Median” value [2, 18] was −10.0, the “HAQ-Pain, Change from Baseline, Median” value [2, 18] was −20.0 and the “HAQ-DI, Change from Baseline, Median” value [2, 19] was −0.1. For the same substance, the “HAQ-Health, Change from Baseline, Median” value [2, 19] was −10.0, the “HAQ-Pain, Change from Baseline, Median” value [2, 19] was −20.0 and the “HAQ-DI, Observed, Median” value [2, 20] was 0.1. The “HAQ-Health, Observed, Median” value [2, 20] was 10.0, the “HAQ-Pain, Observed, Median” value [2, 20] was 10.0 and the “HAQ-DI, Observed, Median” value [2, 21] was 0.1. The “HAQ-Health, Observed, Median” value [2, 21] was 10.0, the “HAQ-Pain, Observed, Median” value [2, 21] was 10.0 and the “HAQ-DI, Change from Baseline, Median” value ([2]; Week 52/ET, change from Methotrexate Baseline) was −0.1. For the same substance, the “HAQ-DI, Change from Baseline, Median” value [2, 22] was −0.1, the “HAQ-Health, Change from Baseline, Median” value [2, 22] was 5.0 and the “HAQ-DI, Observed, Median” value [2, 23] was 0.3. The “HAQ-Health, Observed, Median” value [2, 23] was 80.0, the “HAQ-Pain, Observed, Median” value [2, 23] was 1.0 and the “HAQ-DI, Observed, Median” value [2, 24] was 0.3. The “HAQ-Health, Observed, Median” value [2, 24] was 80.0 and the “HAQ-Pain, Observed, Median” value [2, 24] was 1.0.
